Data reported in PubChem BioAssay AID686979 (National Center for Advancing Translational Sciences (NCATS), 2013).
The whole screen tested about 420,000 compounds, of which about 50,000 (12%) were called active. This list was built around the results that the source calls inconclusive (neither active nor inactive); the mix of calls is not that of the screen. The call rests on the fitted dose curve; in most records, active means well fitted inhibition curve with a large enough effect; inconclusive means small, poorly fitted or top-dose-only effect; inactive means flat fitted curve, though single readings scatter. Potencies of inconclusive entries are left out as doubtful fits.

Test: qHTS for Inhibitors of human tyrosyl-DNA phosphodiesterase 1 (TDP1): qHTS in cells in presence of CPT; further: nearly all actives have a fitted effect of over 55% in size
Details: chicken DT40 Tdp1-/-;hTDP1 cells + 20 nM CPT, ATP luminescence, 48 h; activity change, negative = growth inhibition: at 46.2 µM (top of the series)
Outline: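 Chicken DT40 Tdp1-/- cells stably complemented with human TDP1 were seeded at 400 cells/well in medium containing 20 nM camptothecin, exposed to pin-transferred compounds, and grown at 37 °C for at least 48 hr. Viability was read as ATP luminescence.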
On the % scale 0 is the no-effect control and ±100 the full control effect; potency means the concentration at half of the fitted maximal effect; tags describe the fitted curve by direction and shape.

Compound	Potency	activity change, negative = growth inhibition
COc1cc(CNC(=O)CCCC(=O)c2ccccc2)cc(OC)c1OC	inconclusive [inhibitor, single point]	–
Cc1nnc(SCCn2c(N3CCCC(C)C3)nc3c2c(=O)[nH]c(=O)n3C)s1 (configuration not stated)	–	inactive: -23.1%
CN(C)c1ccc(/C=C/c2ccnc3ccccc23)cc1[N+](=O)[O-]	–	inactive: -2.45%
Cc1cccc(NC(=O)Cn2nc(-c3ccc(Cl)cc3)c3ccccc3c2=O)c1	inconclusive [inhibitor, partial curve]	–
CC(C)NC(=O)C1CC(=O)N(c2ccc(F)c(Cl)c2)C1 (configuration not stated)	–	inactive: 2.7%
COc1ccccc1CNC(=O)c1cccn1-c1nnc(N2CCCC2)s1	inconclusive [inhibitor, single point]	–
CCOC(=O)c1cc(C#N)c(Oc2ccccc2)nc1-c1ccccc1	inconclusive [inhibitor, single point]	–
Cc1ccc(-n2c(SCc3ccccc3F)nc3[nH]ncc3c2=O)cc1C	inconclusive [inhibitor, single point]	–
CCN(CC)S(=O)(=O)c1ccc(N2CCCCC2)c(C(=O)Nc2ccccc2N2CCOCC2)c1	active: 10.3 µM	–
COc1cc(/C=C(\CCC(=O)O)c2nc3ccccc3s2)ccc1OCC(=O)Nc1c(Cl)cccc1Cl	active: 16.4 µM	–
CC(=O)c1nccs1	–	inactive: 32.5%
CN(C)c1ccc(/C=N/Nc2nc3ccccc3o2)cc1	inconclusive [inhibitor, single point]	–
O=C(CSc1nnc(CN2CCCC2)n1-c1ccc(F)cc1)c1ccc2c(c1)OCO2	inconclusive [inhibitor, single point]	–
CCOC(=O)C1=C(C)N(CC(C)C)C(=O)C1	–	inactive: 3.52%
COc1ccc(N2CCN(C(=O)C3CCCN(S(=O)(=O)c4ccc(F)cc4)C3)CC2)cc1 (configuration not stated)	active: 10.3 µM	–
O=C(NCCc1ccc2c(c1)OCCO2)c1cc(S(=O)(=O)N2CCCC2)ccc1Cl	active: 18.4 µM	–
CC(=O)c1cccc(NC(=O)C(C)OC(=O)C2CCC2)c1 (configuration not stated)	–	inactive: 3.51%
CCC(=O)Nc1cc(-c2nn(C)c(=O)c3ccccc23)ccc1N1CCCCC1	inconclusive [inhibitor, partial curve]	–
Oc1c(C(Nc2nccs2)c2ccc(C(F)(F)F)cc2)ccc2cccnc12 (configuration not stated)	inconclusive [inhibitor, single point]	–
O=C(Nc1cccc(-c2nc3ncccc3o2)c1)c1ccc(-c2cccc(Cl)c2Cl)o1	active: 5.8 µM	–
O=C(CC(O)(c1ccccc1)C(F)(F)C(F)F)c1cccs1 (configuration not stated)	–	inactive: -8.71%
CN(C1CCCCC1)S(=O)(=O)c1ccc(C(=O)Nc2sc3c(c2C(N)=O)CC(C)(C)NC3(C)C)cc1	inconclusive [inhibitor, single point]	–
O=C(C[C@H]1C/C=C\C[C@H](NC(=O)OCC2c3ccccc3-c3ccccc32)C(=O)OC[C@H](Cc2ccccc2)NC1=O)N[C@H](CO)Cc1ccccc1	active: 5.17 µM	–
CCc1nc(-c2cc(S(=O)(=O)N3CCN(c4ccc(F)cc4)CC3)ccc2OC)no1	–	inactive: -12.8%

Compound	Potency	activity change, negative = growth inhibition
COc1ccc(N2CCN(C(=O)CSCc3nc(-c4ccccc4Cl)oc3C)CC2)cc1	active: 14.6 µM	–
COc1ccc([C@H]2CC(=O)C=C(c3cccc(Cl)c3)C2)cc1	inconclusive [inhibitor, single point]	–
O=C(NCCc1ccc(Cl)cc1)c1cccn1-c1nnc(N2CCCCC2)s1	inconclusive [inhibitor, single point]	–
COc1ccc(C(CNC(=O)COc2ccc(F)cc2Cl)N2CCOCC2)cc1 (configuration not stated)	inconclusive [inhibitor, single point]	–
COc1cccc(/C=C/C(=C2\C(=O)N(c3ccccc3)N=C2C)c2ccc(Br)cc2)c1OC	–	inactive: -28.7%
COc1ccc(CNC(=O)/C=C/c2ccccc2[N+](=O)[O-])cc1	–	inactive: -6.53%
C=C1CCC[C@]2(C)C[C@H]3OC(=O)C(CN(C)CC(OC)OC)[C@H]3CC12 (some centres not stated)	inconclusive [inhibitor, single point]	–
CCc1nc2c(OCc3ccc(Cl)cc3)cccn2c1N(C=O)Cc1ccc(OC)cc1	active: 20.6 µM	–
COc1cc(C(O)c2nc(-c3ccc(F)c(Cl)c3)cs2)ccc1F (configuration not stated)	inconclusive [inhibitor, single point]	–
Nc1ccccc1C(=O)NC1CCCCNC1=O (configuration not stated)	–	inactive: 10.6%
O=C(Nc1cccc(C(F)(F)F)c1)c1noc2c1CCc1ccccc1-2	active: 10.3 µM	–
CC1CN(C(=O)c2ccccc2OCc2ccccc2Cl)CC(C)O1 (configuration not stated)	inconclusive [inhibitor, partial curve]	–
Cc1nc2ccc(NC(=O)c3ccc(S(=O)(=O)N(C)C)cc3)cc2s1	–	inactive: -15.9%
Cc1ccc(-n2ncc3c(SCC(=O)Nc4cc(C)on4)ncnc32)c(C)c1	–	inactive: -16.3%
CC(=O)c1cc(-c2ccccc2)n(CC(=O)NC2CCCCCC2)c1C	inconclusive [inhibitor, single point]	–
CN(c1cccc(NC(=O)COc2ccc(Cl)cc2Cl)c1)S(C)(=O)=O	active: 20.6 µM	–
Cc1ccc(N2C(=O)C3CCCN3C2=S)cc1Cl (configuration not stated)	–	inactive: -16.4%
O=c1cc(CO)oc(CN2CCN(c3cccc(C(F)(F)F)c3)CC2)c1O	inconclusive [inhibitor, single point]	–
CCCSc1ccc(C(=O)Nc2ccc(F)cc2F)cn1	–	inactive: 6.36%
Cc1cccc(C(=O)N(Cc2nc3ccccc3c(=O)[nH]2)C2CCCC2)c1	inconclusive [inhibitor, single point]	–
COc1ccc(NC(=O)COC(=O)/C=C/c2ccccc2[N+](=O)[O-])cc1OC	inconclusive [inhibitor, single point]	–
COc1cc2c(cc1NC(=O)CC1SC(N3CCCC3)=NC1=O)oc1ccccc12 (configuration not stated)	inconclusive [inhibitor, single point]	–
CC(=O)Nc1ccc(NC(=O)C(C)OC(=O)CCCc2c[nH]c3ccccc23)cc1 (configuration not stated)	–	inactive: 9.3%
Cc1cccc(NC(=O)CSc2nc3c(c(=O)[nH]2)CN(Cc2ccc4c(c2)OCO4)CC3)c1C	inconclusive [inhibitor, single point]	–

Compound	Potency	activity change, negative = growth inhibition
Cc1cccc(NS(=O)(=O)c2cccc(C(=O)N3CCCCCC3)c2)c1	inconclusive [inhibitor, single point]	–
CC(Cl)C(=O)c1ccc2c(c1)CCN2C(=O)C1CC1 (configuration not stated)	inconclusive [inhibitor, single point]	–
O=C(Cc1cccc([N+](=O)[O-])c1)Nc1cccc(C(=O)N2CCCC2)c1	inconclusive [inhibitor, single point]	–
COc1ccc(-c2csc3ncnc(N4CCN(c5ccc(OC)cc5)CC4)c23)cc1	active: 23.1 µM	–
CCc1ccc(-n2c(=O)c3cccnc3n2CC(=O)NCc2ccc(F)cc2)cc1	inconclusive [inhibitor, single point]	–
Cc1ccc(NS(=O)(=O)c2cccc(C(=O)N3CCCCCC3)c2)cc1	inconclusive [inhibitor, single point]	–
CC(C)C(NC(=O)c1ccccc1)C(=O)OCc1cc([N+](=O)[O-])cc2c1OCOC2 (configuration not stated)	active: 14.6 µM	–
CCOc1ccccc1-n1c(SCC(=O)NC(C)(C)C)nnc1-c1ccoc1C	–	inactive: -15.2%
Cc1ccc(NC(=O)CN2CCN(Cc3ccccc3)CC2)c(Br)c1	inconclusive [inhibitor, single point]	–
Cc1ccc2cc(CNC(C)CO)c(N3CCC(O)CC3)nc2c1 (configuration not stated)	–	inactive: 0.555% [at 9.04 µM]
O=S(=O)(Nc1ccc(Br)cc1)c1cccc2nonc12	–	inactive: 10.5%
O=C(Nc1nccs1)c1ccc2nccnc2c1	inconclusive [inhibitor, single point]	–
C[C@]1(C(=O)NCCc2c[nH]c3ccccc23)C=C[C@@H](Cc2ccccc2)N1C(=O)c1ccccc1	inconclusive [inhibitor, single point]	–
COc1cc(N(C)C)ccc1/C=C/c1ccnc2ccccc12	active: 10 µM	–
Brc1ccc2c(c1)C(C1=NCCN1)c1ccccc1CS2 (configuration not stated)	active: 7.31 µM	–
Cn1c(=O)c(=O)n(C)c2cc(S(=O)(=O)N3CCN(c4ccccc4F)CC3)ccc21	inconclusive [inhibitor, single point]	–
CCOC(=O)[C@@H]1[C@H]2COc3ccccc3[C@@H]2N2C(=O)N(c3cccc(C)c3)C(=O)[C@]12C	inconclusive [inhibitor, partial curve, poor fit]	–
Oc1ccccc1C=Nc1ccccc1-c1nc2ccccc2[nH]1	inconclusive [inhibitor, single point]	–
Cc1cccc(C(=O)N2CCN(c3ccc([N+](=O)[O-])c(NCc4ccco4)c3)CC2)c1	inconclusive [inhibitor, single point]	–
CCOC(=O)N1CCc2c(sc3c2c(=O)n(Cc2ccccc2)c(=O)n3CC(=O)Nc2c(C)cccc2C)C1	inconclusive [inhibitor, full curve]	–
Cc1ccc(S(=O)(=O)Cn2nnnc2C(c2ccc(F)cc2)N2CCC(C(N)=O)CC2)cc1 (configuration not stated)	–	inactive: -2.8%
CCOCN(C(=O)Cn1c(C(C)O)nc2ccccc21)c1c(C)cccc1CC (configuration not stated)	inconclusive [inhibitor, single point]	–
COc1ccc(CCN2C(=O)CCC3=C2CCC3=O)cc1OC	–	inactive: 2.61%
O=C(Nc1ccc(F)c(Cl)c1)C1Cc2c(-c3ccc(Cl)cc3)ccnc2O1 (configuration not stated)	active: 16.4 µM	–
